Results are given in words; binding and its absence hold for the method and conditions named. For some assays here: In cells and extracts the contact can be indirect. Some entries that bind do so weakly or less than the wild type. Where a sequence is shown, tags or fusion partners need not be part of it.
T1: LexA-POT1∆C (human) (UniProt Q9NUX5)
T1 sequence: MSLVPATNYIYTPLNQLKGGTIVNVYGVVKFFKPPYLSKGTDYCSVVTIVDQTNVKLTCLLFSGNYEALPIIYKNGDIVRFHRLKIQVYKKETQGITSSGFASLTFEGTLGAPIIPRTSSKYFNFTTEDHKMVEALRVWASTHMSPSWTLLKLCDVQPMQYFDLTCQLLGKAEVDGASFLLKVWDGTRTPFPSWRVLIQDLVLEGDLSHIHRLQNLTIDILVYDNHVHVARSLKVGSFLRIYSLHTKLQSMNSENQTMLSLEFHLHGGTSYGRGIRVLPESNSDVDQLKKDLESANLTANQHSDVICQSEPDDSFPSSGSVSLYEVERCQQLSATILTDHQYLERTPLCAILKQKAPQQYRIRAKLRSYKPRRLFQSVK

Protein sequences, listed by entry. Tags and fused reporters are not part of them.
UniProt P54274: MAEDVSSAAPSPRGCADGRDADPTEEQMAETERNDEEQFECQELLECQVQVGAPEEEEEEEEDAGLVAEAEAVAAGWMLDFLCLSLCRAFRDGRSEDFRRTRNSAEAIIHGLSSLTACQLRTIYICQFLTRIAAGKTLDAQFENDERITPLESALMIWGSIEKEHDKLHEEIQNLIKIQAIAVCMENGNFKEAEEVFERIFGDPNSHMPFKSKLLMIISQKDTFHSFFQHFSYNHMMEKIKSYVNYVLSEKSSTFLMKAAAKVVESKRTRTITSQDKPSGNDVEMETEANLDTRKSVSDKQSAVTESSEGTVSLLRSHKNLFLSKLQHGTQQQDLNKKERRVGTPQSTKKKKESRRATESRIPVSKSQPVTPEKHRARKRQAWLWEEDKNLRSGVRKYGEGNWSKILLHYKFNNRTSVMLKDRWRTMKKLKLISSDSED
UniProt Q15554: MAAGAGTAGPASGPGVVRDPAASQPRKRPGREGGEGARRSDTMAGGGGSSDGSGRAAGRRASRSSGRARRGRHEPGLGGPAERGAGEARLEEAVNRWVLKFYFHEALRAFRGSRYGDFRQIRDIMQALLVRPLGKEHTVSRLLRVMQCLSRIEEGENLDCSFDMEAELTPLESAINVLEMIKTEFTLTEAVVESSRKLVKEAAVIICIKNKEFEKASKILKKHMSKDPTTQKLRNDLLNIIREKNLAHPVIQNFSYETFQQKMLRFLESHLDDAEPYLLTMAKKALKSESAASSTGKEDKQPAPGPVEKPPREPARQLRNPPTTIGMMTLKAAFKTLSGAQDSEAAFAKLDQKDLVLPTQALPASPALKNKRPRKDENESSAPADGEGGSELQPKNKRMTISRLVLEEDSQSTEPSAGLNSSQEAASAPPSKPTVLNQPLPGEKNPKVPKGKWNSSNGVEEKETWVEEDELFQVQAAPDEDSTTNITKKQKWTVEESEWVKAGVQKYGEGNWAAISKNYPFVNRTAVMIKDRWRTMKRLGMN

T2: LexA-POT1 (full-length POT1) (human) (UniProt Q9NUX5)
T2 sequence: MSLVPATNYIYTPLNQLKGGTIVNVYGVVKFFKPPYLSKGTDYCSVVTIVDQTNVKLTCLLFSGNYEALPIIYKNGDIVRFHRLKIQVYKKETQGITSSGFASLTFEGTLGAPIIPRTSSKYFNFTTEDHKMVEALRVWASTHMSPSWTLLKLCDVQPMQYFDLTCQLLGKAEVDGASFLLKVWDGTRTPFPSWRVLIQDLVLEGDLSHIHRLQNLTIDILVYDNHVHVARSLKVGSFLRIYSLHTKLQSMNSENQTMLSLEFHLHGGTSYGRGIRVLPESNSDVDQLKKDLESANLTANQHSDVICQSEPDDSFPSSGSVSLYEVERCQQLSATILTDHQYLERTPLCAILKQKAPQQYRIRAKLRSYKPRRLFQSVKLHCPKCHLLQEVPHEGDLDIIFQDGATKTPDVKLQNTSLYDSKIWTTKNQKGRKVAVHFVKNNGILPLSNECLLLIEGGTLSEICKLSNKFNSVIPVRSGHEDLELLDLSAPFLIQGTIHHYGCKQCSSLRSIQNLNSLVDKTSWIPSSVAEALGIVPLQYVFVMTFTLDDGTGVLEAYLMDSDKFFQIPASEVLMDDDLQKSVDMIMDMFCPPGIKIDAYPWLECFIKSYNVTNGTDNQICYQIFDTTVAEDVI

T3: TIN2 (endogenous) (human (endogenous in HTC75)) (UniProt Q9BSI4)
T3 sequence: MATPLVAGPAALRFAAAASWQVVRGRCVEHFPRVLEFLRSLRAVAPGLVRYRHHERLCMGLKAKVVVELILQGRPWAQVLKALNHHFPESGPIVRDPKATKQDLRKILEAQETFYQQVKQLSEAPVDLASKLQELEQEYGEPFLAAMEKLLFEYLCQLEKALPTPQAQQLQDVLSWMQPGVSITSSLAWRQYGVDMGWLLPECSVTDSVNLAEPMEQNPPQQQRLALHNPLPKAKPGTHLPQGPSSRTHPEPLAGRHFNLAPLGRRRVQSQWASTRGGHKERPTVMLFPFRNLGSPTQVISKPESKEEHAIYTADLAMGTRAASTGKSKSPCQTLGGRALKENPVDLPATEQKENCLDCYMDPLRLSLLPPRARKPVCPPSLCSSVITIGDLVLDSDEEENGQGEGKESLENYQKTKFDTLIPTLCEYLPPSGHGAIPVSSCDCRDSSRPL

T4: POT1 (endogenous) (human (endogenous in HTC75)) (UniProt Q9NUX5)
T4 sequence: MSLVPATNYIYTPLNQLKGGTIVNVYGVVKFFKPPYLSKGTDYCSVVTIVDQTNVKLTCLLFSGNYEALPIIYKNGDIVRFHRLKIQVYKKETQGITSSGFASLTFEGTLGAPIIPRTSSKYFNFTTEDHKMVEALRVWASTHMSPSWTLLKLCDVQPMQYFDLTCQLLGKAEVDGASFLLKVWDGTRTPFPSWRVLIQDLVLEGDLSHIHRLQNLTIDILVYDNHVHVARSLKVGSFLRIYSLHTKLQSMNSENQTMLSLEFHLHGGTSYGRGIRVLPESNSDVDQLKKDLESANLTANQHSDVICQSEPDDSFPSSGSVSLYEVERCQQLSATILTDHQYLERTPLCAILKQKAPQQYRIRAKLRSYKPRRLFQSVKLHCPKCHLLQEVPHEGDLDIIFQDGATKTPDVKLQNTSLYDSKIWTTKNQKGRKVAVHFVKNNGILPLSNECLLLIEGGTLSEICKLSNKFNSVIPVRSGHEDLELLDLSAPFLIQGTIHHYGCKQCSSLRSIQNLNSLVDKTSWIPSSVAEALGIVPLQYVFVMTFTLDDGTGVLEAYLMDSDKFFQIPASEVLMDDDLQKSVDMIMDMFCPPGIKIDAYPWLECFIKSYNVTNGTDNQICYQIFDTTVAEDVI

T5: FLAG-TRIP6 (full-length TRIP6) (human) (UniProt Q15654)
T5 sequence: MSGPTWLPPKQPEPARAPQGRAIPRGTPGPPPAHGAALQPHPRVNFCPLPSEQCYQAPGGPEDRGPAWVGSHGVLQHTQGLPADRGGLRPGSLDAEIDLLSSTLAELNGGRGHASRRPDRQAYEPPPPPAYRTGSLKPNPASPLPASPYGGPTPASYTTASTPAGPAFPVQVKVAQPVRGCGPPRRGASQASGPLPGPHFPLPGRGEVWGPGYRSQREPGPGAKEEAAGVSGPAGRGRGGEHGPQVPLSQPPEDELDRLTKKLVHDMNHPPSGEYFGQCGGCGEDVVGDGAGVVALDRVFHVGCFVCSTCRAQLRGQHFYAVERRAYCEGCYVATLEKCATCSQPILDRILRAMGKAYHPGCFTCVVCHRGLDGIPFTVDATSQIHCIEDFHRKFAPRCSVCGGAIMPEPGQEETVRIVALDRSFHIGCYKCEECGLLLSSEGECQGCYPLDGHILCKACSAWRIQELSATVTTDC


What was measured:
LexA-POT1∆C (human) = biological target: T1, LexA-POT1∆C (human); experiment: two-hybrid; yeast strain L40, LexA DNA binding domain baits, GAL4 activation domain preys, HIS3 and LacZ reporters (His phenotype, patch LacZ, liquid β-Gal assays)
LexA-TRF1 = LexA-TRF1 (UniProt P54274); experiment: as above
[1] = biological target: T2, LexA-POT1 (full-length POT1) (human); experiment: as above
[2] = biological target: T3, TIN2 (endogenous) (human (endogenous in HTC75)); experiment: co-IP; lysates of HTC75 cells stably expressing MYC-TRIP6 or MYC-LPP; immunoprecipitation with antibodies to shelterin components, blot probed with 9E10 (anti-MYC)
[3] = biological target: TRF2 (endogenous) (human (endogenous in HTC75)) (UniProt Q15554); experiment: as above
[4] = biological target: TRF1 (endogenous) (human (endogenous in HTC75)) (UniProt P54274); experiment: as above
[5] = biological target: T4, POT1 (endogenous) (human (endogenous in HTC75)); experiment: as above
[6] = biological target: TRF2 (endogenous) (human (endogenous in HTC75)) (UniProt Q15554); experiment: co-IP; data not shown; coprecipitation of POT1 or TRF2 with wild-type TRIP6 or TRIP6-NES
[7] = biological target: T4, POT1 (endogenous) (human (endogenous in HTC75)); experiment: as above
[8] = biological target: T5, FLAG-TRIP6 (full-length TRIP6) (human); experiment: co-IP; lysates of transiently co-transfected 293T cells; immunoprecipitation with M2 (anti-FLAG) or 9E10 (anti-MYC), blot probed with 9E10

Molecule	binding (LexA-POT1∆C (human))	binding [2]	binding [3]	binding [5]	other results
TRF1-GAD (from UniProt P54274 1-439)	no binding				
TRIP6 two-hybrid library clone (three C-terminal LIM domains) fused to the GAL4 activation domain (domain or fragment, UniProt Q15654 218-476) EPGPGAKEEAAGVSGPAGRGRGGEHGPQVPLSQPPEDELDRLTKKLVHDMNHPPSGEYFGQCGGCGEDVVGDGAGVVALDRVFHVGCFVCSTCRAQLRGQHFYAVERRAYCEGCYVATLEKCATCSQPILDRILRAMGKAYHPGCFTCVVCHRGLDGIPFTVDATSQIHCIEDFHRKFAPRCSVCGGAIMPEPGQEETVRIVALDRSFHIGCYKCEECGLLLSSEGECQGCYPLDGHILCKACSAWRIQELSATVTTDC	binds				binding (LexA-TRF1): no binding; binding [1]: binds
MYC-LPP (full-length LPP) (protein, UniProt Q93052 1-612) MSHPSWLPPKSTGEPLGHVPARMETTHSFGNPSISVSTQQPPKKFAPVVAPKPKYNPYKQPGGEGDFLPPPPPPLDDSSALPSISGNFPPPPPLDEEAFKVQGNPGGKTLEERRSSLDAEIDSLTSILADLECSSPYKPRPPQSSTGSTASPPVSTPVTGHKRMVIPNQPPLTATKKSTLKPQPAPQAGPIPVAPIGTLKPQPQPVPASYTTASTSSRPTFNVQVKSAQPSPHYMAAPSSGQIYGSGPQGYNTQPVPVSGQCPPPSTRGGMDYAYIPPPGLQPEPGYGYAPNQGRYYEGYYAAGPGYGGRNDSDPTYGQQGHPNTWKREPGYTPPGAGNQNPPGMYPVTGPKKTYITDPVSAPCAPPLQPKGGHSGQLGPSSVAPSFRPEDELEHLTKKMLYDMENPPADEYFGRCARCGENVVGEGTGCTAMDQVFHVDCFTCIICNNKLRGQPFYAVEKKAYCEPCYINTLEQCNVCSKPIMERILRATGKAYHPHCFTCVMCHRSLDGIPFTVDAGGLIHCIEDFHKKFAPRCSVCKEPIMPAPGQEETVRIVALDRDFHVHCYRCEDCGGLLSEGDNQGCYPLDGHILCKTCNSARIRVLTAKASTDL		binds	binds	binds	binding [4]: binds
MYC-TRIP6 (full-length TRIP6) (protein, UniProt Q15654 1-476) MSGPTWLPPKQPEPARAPQGRAIPRGTPGPPPAHGAALQPHPRVNFCPLPSEQCYQAPGGPEDRGPAWVGSHGVLQHTQGLPADRGGLRPGSLDAEIDLLSSTLAELNGGRGHASRRPDRQAYEPPPPPAYRTGSLKPNPASPLPASPYGGPTPASYTTASTPAGPAFPVQVKVAQPVRGCGPPRRGASQASGPLPGPHFPLPGRGEVWGPGYRSQREPGPGAKEEAAGVSGPAGRGRGGEHGPQVPLSQPPEDELDRLTKKLVHDMNHPPSGEYFGQCGGCGEDVVGDGAGVVALDRVFHVGCFVCSTCRAQLRGQHFYAVERRAYCEGCYVATLEKCATCSQPILDRILRAMGKAYHPGCFTCVVCHRGLDGIPFTVDATSQIHCIEDFHRKFAPRCSVCGGAIMPEPGQEETVRIVALDRSFHIGCYKCEECGLLLSSEGECQGCYPLDGHILCKACSAWRIQELSATVTTDC		binds	binds	binds weakly	binding [6]: binds; binding [7]: binds weakly
MYC-POT1 (full-length POT1) (protein, UniProt Q9NUX5 1-634) MSLVPATNYIYTPLNQLKGGTIVNVYGVVKFFKPPYLSKGTDYCSVVTIVDQTNVKLTCLLFSGNYEALPIIYKNGDIVRFHRLKIQVYKKETQGITSSGFASLTFEGTLGAPIIPRTSSKYFNFTTEDHKMVEALRVWASTHMSPSWTLLKLCDVQPMQYFDLTCQLLGKAEVDGASFLLKVWDGTRTPFPSWRVLIQDLVLEGDLSHIHRLQNLTIDILVYDNHVHVARSLKVGSFLRIYSLHTKLQSMNSENQTMLSLEFHLHGGTSYGRGIRVLPESNSDVDQLKKDLESANLTANQHSDVICQSEPDDSFPSSGSVSLYEVERCQQLSATILTDHQYLERTPLCAILKQKAPQQYRIRAKLRSYKPRRLFQSVKLHCPKCHLLQEVPHEGDLDIIFQDGATKTPDVKLQNTSLYDSKIWTTKNQKGRKVAVHFVKNNGILPLSNECLLLIEGGTLSEICKLSNKFNSVIPVRSGHEDLELLDLSAPFLIQGTIHHYGCKQCSSLRSIQNLNSLVDKTSWIPSSVAEALGIVPLQYVFVMTFTLDDGTGVLEAYLMDSDKFFQIPASEVLMDDDLQKSVDMIMDMFCPPGIKIDAYPWLECFIKSYNVTNGTDNQICYQIFDTTVAEDVI					binding [8]: binds

Reference: PMC2933890
